Laboratory results as given in the supplement of paper PMC3334620.
In all, about 33,000 sequences were measured (“E-score (-0.5 to 0.5)”: median about -0.035, highest 2% from about 0.35 on). The list shows a part of the results.

Biological target: T1, Pdr3 (UniProt P33200)
T1 sequence: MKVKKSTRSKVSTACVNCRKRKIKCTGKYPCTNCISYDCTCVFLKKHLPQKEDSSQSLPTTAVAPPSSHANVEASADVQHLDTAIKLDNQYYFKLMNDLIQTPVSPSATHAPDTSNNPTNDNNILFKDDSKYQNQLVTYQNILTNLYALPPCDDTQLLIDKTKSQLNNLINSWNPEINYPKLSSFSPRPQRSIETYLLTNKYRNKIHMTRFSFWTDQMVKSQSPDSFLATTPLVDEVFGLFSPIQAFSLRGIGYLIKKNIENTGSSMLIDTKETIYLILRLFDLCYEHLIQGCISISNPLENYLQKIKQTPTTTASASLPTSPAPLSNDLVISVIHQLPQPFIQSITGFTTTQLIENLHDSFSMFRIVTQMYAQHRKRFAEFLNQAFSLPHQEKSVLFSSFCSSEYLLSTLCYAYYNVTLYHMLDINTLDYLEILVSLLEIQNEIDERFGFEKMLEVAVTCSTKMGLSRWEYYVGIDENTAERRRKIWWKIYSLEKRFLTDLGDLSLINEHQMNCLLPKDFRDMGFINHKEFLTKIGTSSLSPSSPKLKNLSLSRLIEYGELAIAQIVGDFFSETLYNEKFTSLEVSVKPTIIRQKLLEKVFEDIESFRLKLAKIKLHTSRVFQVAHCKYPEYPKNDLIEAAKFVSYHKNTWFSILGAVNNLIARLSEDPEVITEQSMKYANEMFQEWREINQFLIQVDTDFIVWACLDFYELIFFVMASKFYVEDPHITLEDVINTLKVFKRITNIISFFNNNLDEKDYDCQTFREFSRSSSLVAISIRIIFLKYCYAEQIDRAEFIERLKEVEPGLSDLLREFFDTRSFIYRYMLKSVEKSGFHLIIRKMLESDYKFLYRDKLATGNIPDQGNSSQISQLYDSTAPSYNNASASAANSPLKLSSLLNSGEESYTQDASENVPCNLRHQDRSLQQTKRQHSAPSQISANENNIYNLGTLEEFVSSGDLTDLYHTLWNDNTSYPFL
Assay: PBM E-score (8-mer binding enrichment) (E-score (-0.5 to 0.5)); higher = stronger / more preferred TF binding; most listed sequences are background and not binding sites
Details: protein concentration: 200 nM; construct: GST-full length
Procedure, shortened: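 Universal all-10-mer Agilent arrays, double-stranded by primer extension on fresh or once-stripped slides, were probed with about 100-200 nM GST-tagged yeast transcription factors made by PURExpress. Fluorescent anti-GST detected bound protein, and masliner normalised the scans. E-scores from the Universal PBM Analysis Suite were given to each ungapped eight-base word pooled with its reverse complement.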

Sequence | PBM E-score
TGCTGACA | -0.201
CGCAAAAA | 0.0978
CAAGAATC | -0.0515
ATCAACGA | 0.0802
CAGGACAC | -0.0576
TATAATCA | 0.0514
AACAACCG | 0.113
AAATATAT | 0.19
CGGGTTCA | 0.304
CATATAAC | 0.049
ACCCCACT | 0.106
ACAGTATG | 0.0747
AGTCCACA | -0.239
CACTTCCA | -0.0319
AGCGCCTC | 0.0308
AAAGCAAC | -0.0277
AACAGTCG | -0.0572
GGGGATAA | 0.0548
CCCTTCGC | -0.0816
ACTCCGGG | 0.369
TCTAGCCA | -0.128
AAATGTAT | 0.15

Sequence | PBM E-score
GGTCTTCA | -0.198
CAAGCCGA | 0.148
AACATTAT | 0.0788
CAGATGTA | -0.2
AAGCACAG | -0.0267
CGCATAGA | 0.0297
AAACGCTT | -0.218
TCTTAACA | -0.237
CACTTGAA | -0.13
AGGAGCAT | -0.137
AGTTAACC | 0.0562
CGAGACGC | 0.0374
AATACATT | -0.0492
CGTGACTA | -0.00109
CTAATCGA | 0.0366
AATACCGA | 0.0748
ACTCTGAA | 0.0584
AGATAAGA | 0.0269
CTTACAGA | -0.182
AGCGCAGC | -0.099
CAATGCAG | -0.0477
CCCGATGA | 0.269

Sequence | PBM E-score
TATGGCGA | -0.0751
ATAGAGAA | -0.113
CAGTCAAA | -0.0759
ACAGGCAC | -0.123
CCAAATGC | -0.0689
AGTACTAT | -0.0162
ATTACTCA | -0.0474
ACTATGCC | 0.104
CCCTGCGG | 0.0874
AACACTCT | 0.0204
ACAATGTC | 0.0131
AAAAGTGG | 0.0759
ATCCGCCG | 0.387
AGTTGTTA | 0.0458
AAGCGTGT | -0.256
AGCCAGTG | -0.142
TCGGGTCA | 0.312
CGCTATAA | -0.0802
CCGTATCG | 0.0411
CCGCGCAG | 0.278
GGGCCACA | -0.068
ATTCGCGC | 0.113

Sequence | PBM E-score
CCGTCGTC | 0.128
CAGACGAG | -0.165
CGCTTAAC | 0.0421
AGAAGCCC | -0.00976
CATAGGTC | -0.0905
GGGCCCCA | 0.092
CAAGTACG | -0.0802
ATCCTGCA | -0.139
AGTCCTCA | -0.023
CGCAGACG | 0.0826
GACCGATC | 0.134
ATTGAATG | 0.0761
AAGGTCCA | 0.00467
GTGTTGAA | -0.157
AAAGCTCT | -0.228
AACCTATC | -0.0357
CTTGGCTC | -0.302
AGCGGAGG | 0.00881
GGCGTTAC | -0.179
ACCTTAGG | -0.184
ACGTAGGC | -0.135
AGATACCG | 0.115

Sequence | PBM E-score
CTTACATA | -0.0709
CAATCGTC | -0.00975
ACGAAGGG | -0.272
CCGTCACA | 0.0352
TACTTTCA | -0.0314
CCCTACTC | 0.126
AATCTACA | 0.0119
AGTGACAC | -0.0319
CCCCCTTA | -0.229
AGCTTGAC | -0.0266
GAATCACA | 0.193
CAACTAAG | -0.0293
GCTGCGCC | -0.125
TTACGTAA | -0.395
AGCCCTTC | -0.17
CAGCTGCA | -0.0612
CAAGTCTC | -0.206
ACGTCCAC | -0.174
GAACCAAA | -0.00151
AGCATAAA | -0.0413
AAAGGTAT | 0.0857
